Single values of this set are uncertain.

B1: Ydj1; a variant is named by its letters at X, in order (parent)
chain: MVKETKFYDILGVPVTATDVEIKKAYRKCALKYHPDKNPSEEAAEKFKEASAAYEILSDPEKRDIYDQFGEDGLSGAGGAGGFPGGGFGFGDDIFSQFFGAGGAQRPRGPQRGKDIKHEISASLEELYKGRTAKLALNKQILCKECEGRGGKKGAVKKCTSCNGQGIKFVTRQMGPMIQRFQTECDVCHGTGDIIDPKDRCKSCNGKKVENERKILEVHVEPGMKDGQRIVFKGEADQAPDVIPGDVVFIVSERPHKSFKRDGDDLVYEAEIDLLTAIAGGEFALEHVSGDWLKVGIVPGEVIAPGMRKVIEGKGMPIPKYGGYGNLIIKFTIKFPENHFTSEENLKKLEEILPPRIVPAIPKKATVDECVLADFDPAKYNRTRASRGGANYDSDEEEQGGEGVQCXXX

Variants of B1 are the subject of this data set. The experiment in a line: enrichment factor, frequency at 37 °C / frequency at 25 °C (thermotolerance selection) (ratio); higher = more growth at 37 °C, higher likelihood of farnesylation. The settings on record: with Saccharomyces cerevisiae ydj1Δ (yWS304); selective temperature 37 °C; reference temperature 25 °C.
Regarding SWY, the enrichment factor was determined as 1.3. To SWV belongs 2.27; to SWW, 1.02. For SWT the value was 2.29. In the case of CWV, the enrichment factor was 0.683. To CWT belongs 0.463; to CWW, 0.664. In the case of CWY, the enrichment factor came to 0.237.

As to AWT, the enrichment factor is 3.09.

As to AWV, the enrichment factor worked out at 0.705.

Consider AWW, for which the enrichment factor amounted to 1.43. As to AWY, the enrichment factor came to 1.61.

Turning to IYL, the enrichment factor came to 1.7. In the case of IYN, the enrichment factor is 2.06. To IYA belongs 2.95.

Turning to IYC, the enrichment factor came to 0.749. With IYD, the enrichment factor is 0.651. As for IYP, the enrichment factor came to 0.115.

IYE: the enrichment factor is 1.8. As to IYF, the enrichment factor came out at 2.57. As to IYK, the enrichment factor was 0.0745. With IYI, the enrichment factor was found to be 1.67.

As to IYG, the enrichment factor was found to be 1.81. Consider IYH, for which the enrichment factor came out at 1.67.

For RYD, the enrichment factor came out at 0.539. On to RYE, for which the enrichment factor is 1.81. RYP: the enrichment factor was 0.162. With RYG, the enrichment factor was 1.07.

Consider RYA, for which the enrichment factor came to 2.37. To RYC belongs 0.695. To RYK belongs 0.0965; to RYM, 0.579. For RYN the value was 1.45; for RYL, 0.414; for RYI, 1.06. Take RYF: the enrichment factor stood at 2.28. As to RYH, the enrichment factor is 1.47.

KYD: the enrichment factor was 0.467. With KYP, the enrichment factor was 0.19. Consider KYH, for which the enrichment factor came to 0.613. Regarding KYC, the enrichment factor is 0.734. With KYA, the enrichment factor is 1.31. Consider KYG, for which the enrichment factor is 1.34. Consider KYN, for which the enrichment factor worked out at 1.3. For KYL, the enrichment factor is 0.357. As to KYE, the enrichment factor amounted to 2.23. To KYK belongs 0.114; to KYF, 1.28. For KYI, the enrichment factor was found to be 1.01.

As for KYM, the enrichment factor is 0.624. Turning to AYG, the enrichment factor worked out at 1.78. As for AYE, the enrichment factor stood at 1.75.

Consider AYI, for which the enrichment factor amounted to 1.73. Take AYC: the enrichment factor came out at 1.37. As to AYF, the enrichment factor worked out at 1.71. For AYH, the enrichment factor was determined as 2.01. Consider AYM, for which the enrichment factor was found to be 2.04. For the variant AYD, the enrichment factor came to 0.953. To AYP belongs 0.125. With AYL, the enrichment factor was found to be 1.47.

Take AYK: the enrichment factor worked out at 0.243. As to AYN, the enrichment factor is 1.95. As to AYA, the enrichment factor was found to be 1.13. For YWT the value was 2.09. Regarding YWY, the enrichment factor is 0.862.

On to YWV, for which the enrichment factor stood at 2.53.

Consider YWW, for which the enrichment factor was determined as 1.16.

For the variant QWT, the enrichment factor is 4.68. Turning to QWW, the enrichment factor stood at 1.02. As for QWY, the enrichment factor stood at 1.9. For QWV the value was 1.96. To PWW belongs 1.06; to PWY, 1.35.

On to PWT, for which the enrichment factor was determined as 1.2.

In the case of PWV, the enrichment factor came out at 1.01.

Consider WYC, for which the enrichment factor is 0.802.

With WYE, the enrichment factor was 2. Regarding WYG, the enrichment factor came out at 1.94. On to WYL, for which the enrichment factor turned out to be 1.37. To WYI belongs 1.59; to WYA, 2.09. Regarding WYP, the enrichment factor came out at 1.09. For the variant WYF, the enrichment factor worked out at 0.663.

For the origin of these results see the supplement of paper PMC10320760.
